From PubChem BioAssay AID1346428 (National Center for Advancing Translational Sciences (NCATS), 2018)
Where “and” joins values, the source holds several entries; their conditions need not be identical. Identical values can stand only once. Hit rate of the full screen: of about 48,000 compounds, about 1,200 (2.5%) were called active. Another 2% or so got no clear call; they are omitted.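 How the source made its calls: active means activation of at least 60% and not above a set upper limit (about 1 call in 100 departs from these limits); inconclusive means activation of 40% to 60%, or above that upper limit; inactive means activation under 40%.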 The list shows a part of the results.
Further: 0% is about no effect.

Each compound was assayed against Probable G-protein coupled receptor 32 (Homo sapiens) (UniProt O75388) (assay: qHTS for Agonists of Human Resolvin D1 Receptor DRV1). Conditions: CHO-K1 GPR32 beta-arrestin PathHunter luminescence, 90 min; at 76.9 µM; stronger effect = higher value; zero percent set by DMSO-only wells.
Sequence of UniProt O75388 (O75388 whole entry, looked up): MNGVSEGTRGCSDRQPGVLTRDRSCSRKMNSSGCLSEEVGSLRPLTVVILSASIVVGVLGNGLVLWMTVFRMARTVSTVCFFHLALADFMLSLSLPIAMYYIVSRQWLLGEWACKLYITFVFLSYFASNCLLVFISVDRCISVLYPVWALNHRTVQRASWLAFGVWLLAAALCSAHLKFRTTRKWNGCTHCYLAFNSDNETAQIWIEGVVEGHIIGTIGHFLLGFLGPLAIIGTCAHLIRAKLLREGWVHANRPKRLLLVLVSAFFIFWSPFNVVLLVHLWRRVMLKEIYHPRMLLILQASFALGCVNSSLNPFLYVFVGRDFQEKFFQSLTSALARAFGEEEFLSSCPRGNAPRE
Procedure, shortened: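 Luminescent readout of beta-Gal complementation quantifies ligand-induced beta-arrestin association with GPR32 in CHO-K1 cells; 90 min compound incubation at 37 °C, detection 1 h at room temperature.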
`COc1ccc(Cl)cc1NC(=O)Cn1cc2c(n1)CCC(C)C2` (centres undefined) was tested, and the activation was inactive: 6.11%.
For `Cc1cccc(NC(=O)Cc2ccc(-n3c(C)nc4cccnc43)cc2)c1C`, the activation was inactive: 7.58%.
With `O=c1c2cnn(-c3ccc(F)cc3)c2ncn1Cc1ccc(F)cc1` the activation was inactive: 0.601%.
For `COc1ccc(CNC(=O)C2Cc3cc(S(=O)(=O)N4CCCCCC4)ccc3N2C(C)=O)cc1` (centres undefined), the activation was inactive: -19.7%.
In the case of `CSc1nnc2[nH]c(=O)cc(C)n12`, the activation was inactive: 1.57%.
With `Cc1cc(-c2ccc(S(=O)(=O)Nc3ccc(Br)c(C)c3)s2)on1` the activation was inactive: -1.71%.
In the case of `CCOc1ccc2oc(=O)cc(CN3CCN(c4ccccc4)CC3)c2c1`, the activation was inactive: -21.4%.
`N#Cc1c[nH]n2c(NC3CCCCC3)c(-c3cccc(Cl)c3)nc12` was tested, and the activation was inactive: -13.6%.
`COc1ccc(CNC(=O)c2ccc(-c3nc(CSc4ccccc4)c(C)o3)cc2)c(OC)c1` was tested, and the activation was inactive: 0.989%.
`CC(=O)c1cccc(NC(=O)c2cc3nc(-c4ccc(Br)cc4)cc(C(F)(F)F)n3n2)c1` was tested, and the activation was inactive: -37%.
With `CCc1ccc(NC(=O)c2cc3c([nH]c2=O)CC(C)(C)CC3=O)cc1` the activation was inactive: 0.691%.
For `COc1ccc(CCN2C(=O)N(c3ccccc3)C(=O)C2CC(=O)Nc2ccccc2)cc1` (centres undefined), the activation was inactive: -0.377%.
`Cc1ccc(-c2nc(C)c(CCNC(=O)C(=O)Nc3ccc4c(c3)OCO4)s2)cc1` was tested, and the activation was inactive: -1.75%.
In the case of `CCCN1C(=O)C2(c3ccccc31)c1c(oc3ccc(C)cc3c1=O)C(=O)N2CCOC` (centres undefined), the activation was inactive: 3.99%.
In the case of `CCOC(=O)C1CCN(CCC(=O)Nc2ccc(OC)cc2)CC1`, the activation was inactive: -16.3%.
In the case of `COc1cc(C(=O)N2CC(=O)Nc3ccc(C)cc3C2c2ccc(F)cc2)cc(OC)c1OC` (centres undefined), the activation was inactive: -0.459%.
For `Cc1nc(N2CCOCC2)c2c(C(=O)N3CCN(c4cccc(C)c4C)CC3)c(C)oc2n1`, the activation was inactive: -23.3%.
`Cc1ccc(-n2nc3c(N4CCCC(C(=O)NCCc5ccccc5)C4)nnc(C)c3c2C)cc1` (centres undefined) was tested, and the activation was inactive: -7.25%.
With `Cc1ccc(CNC(=O)Cn2ccn(-c3ccc(C)c(C)c3)c(=O)c2=O)cc1` the activation was inactive: -1.35%.
In the case of `CN(C)c1ccc(CNC(=O)CN(C)S(=O)(=O)c2ccc3c(c2)c(=O)n(C)c(=O)n3C)cc1`, the activation was inactive: -3.52%.
In the case of `Cc1ccc(CNC(=O)CN(c2ccc(Cl)cc2Cl)S(=O)(=O)c2ccccc2)cc1`, the activation was inactive: -12.1%.
In the case of `C1COC(NC(C2CC2)C2CC2)=N1`, the activation was inactive: -2.25% and inactive: -11%.
For `Cc1ccc(CCNC(=O)Cn2c(-c3cccs3)cc3cc(F)ccc32)cc1`, the activation was inactive: 32.8%.
For `CCc1cccc2sc(N3CCN(C(=O)c4cc5ccccc5cc4OC)CC3)nc12`, the activation was inactive: -17.9%.
For `COc1cccc(C(=O)Nc2c(C(=O)NC(C)(C)C)oc3ccccc23)c1`, the activation was inactive: -16.9%.
With `CCc1cccc(NC(=O)Cn2c(=O)n(CCc3ccc(OC)c(OC)c3)c(=O)c3ccccc32)c1` the activation was inactive: -2.52%.
`CCOC(=O)Cn1cccc1-c1nc(-c2ccc(OC)cc2)c(-c2ccc(OC)cc2)s1` was tested, and the activation was inactive: 23.1%.
In the case of `COc1ccc(CC(=O)NCc2ccc3c(c2)CCN3C(=O)c2ccc(C)cc2)cc1OC`, the activation was inactive: -24.6%.
For `O=C(Cn1ncc2c(=O)oc3ccccc3c21)NCc1ccccc1Cl`, the activation was inactive: 4.21%.
With `O=C(Cn1ncc2c3ccccc3n(Cc3ccccc3F)c2c1=O)NCCc1ccc(Cl)cc1` the activation was inactive: -9.89%.
With `CCOC(=O)c1c(C)[nH]c(C)c1S(=O)(=O)N1CCCC(C(=O)Nc2ccc(OC)c(Cl)c2)C1` (centres undefined) the activation was inactive: -2.49%.
In the case of `COc1cccc(CNC(=O)CSc2c3c(nc4ccc(Cl)cc24)CCCC3)c1OC`, the activation was inactive: -20.9%.
With `O=C(Cn1cnc(S(=O)(=O)N2CCCC2)c1)Nc1ccc(OC(F)(F)F)cc1` the activation was inactive: 14.9%.
In the case of `CCc1ccc(NC(=O)c2cc3sc(Cl)cc3n2C)cc1`, the activation was inactive: 42.1%.
`CC1=C(C(=O)Nc2ccc(C)cc2C)C(c2ccc(Cl)cc2)n2nc(C(=O)OC(C)C)nc2N1` (centres undefined) was tested, and the activation was inactive: -0.364%.
For `COc1ccc(OC)c(NC(=O)Cn2cnc3c(oc4ccccc43)c2=O)c1`, the activation was inactive: -19%.
`COc1ccc(CN2COc3ccc4c(-c5ccccc5)cc(=O)oc4c3C2)cc1` was tested, and the activation was inactive: -15.2%.
With `Cc1cccc(N2CCN(C(=O)C3CCN(S(=O)(=O)c4cccs4)CC3)CC2)c1C` the activation was inactive: -11.7%.
`Cc1ccccc1Nc1nnc(-c2ccc(C)c(S(=O)(=O)N3CCOCC3)c2)c2ccccc12` was tested, and the activation was inactive: 0.024%.
With `O=S(=O)(c1ccc2[nH]c3c(c2c1)CCCCC3)N1CCN(c2ccccc2)CC1` the activation was inactive: 9.06%.
`COc1cccc(CNC(=O)c2cc(-c3cccc(OC)c3)n[nH]2)c1` was tested, and the activation was inactive: -8.46%.
With `O=C(CCn1cnc2ccccc2c1=O)NCc1ccccc1` the activation was inactive: -9.12%.
In the case of `Cc1ccc(N2CCN(C(=O)CCc3c(C)nc4c(c3C)c(=O)n(C)c(=O)n4C)CC2)c(C)c1`, the activation was inactive: 3.52%.
In the case of `CCOc1ccc(NS(=O)(=O)c2ccc(N)cc2)nn1`, the activation was inactive: -7.53%.
For `CC(=O)C1=C(c2ccc(Cl)c(Cl)c2)N(C(C)=O)n2c(C)nnc2S1`, the activation was inactive: -48%.
In the case of `COc1cc(OC)c(N(C)C(=O)c2nn(C)c3c2CSc2ccccc2-3)cc1Cl`, the activation was inactive: -11.2%.
For `CN1C(=O)Cc2cc(S(=O)(=O)CCC(=O)Nc3ccccc3)ccc21`, the activation was inactive: -13%.
`CCN(CC)CCCNC(=O)Cn1nc(N2CCN(c3ccccc3OC)CC2)ccc1=O` was tested, and the activation was inactive: -0.716%.
`Cc1cccc(C)c1NC(=O)c1oc2c(c1C)-c1nn(Cc3ccccc3)cc1CC2` was tested, and the activation was inactive: -10.3%.
`CCCSCCCNC(=O)CN1C(=O)COc2ccc(S(=O)(=O)N3CCC(C)CC3)cc21` was tested, and the activation was inactive: -23.6%.
With `CCc1ccc(S(=O)(=O)Nc2ccc(-c3ccc(N4CCCCCC4)nn3)cc2)cc1` the activation was inactive: 13.8%.
In the case of `Cn1c(=O)[nH]c2ncn(C)c2c1=O`, the activation was inactive: 3.72%.
In the case of `Cc1nc2c(C(=O)N(C)Cc3ccccc3)c[nH]n2c(=O)c1Cc1ccc(Cl)cc1`, the activation was inactive: -15.2%.
`Cc1ccc(Cl)cc1N1CCN(C(=O)c2ccc3c(c2)N(Cc2ccccc2F)C(=O)c2ccccc2S3(=O)=O)CC1` was tested, and the activation was inactive: 7.91%.
With `O=C(NCC(c1ccccc1)c1ccccc1)c1nn(-c2ccccc2Cl)nc1CO` the activation was inactive: -21.8%.
`CCOc1ccccc1NC(=O)c1sc(-n2nc(C)c(CCC(C)C)c2C)nc1C` was tested, and the activation was inactive: -7.09%.
In the case of `COc1ccc(Cl)cc1NC(=O)CN(C)S(=O)(=O)c1ccc(Br)s1`, the activation was inactive: -14.9%.
`CCCCOc1ccc(S(=O)(=O)N2CCN(c3ccccc3OCC)CC2)cc1` was tested, and the activation was inactive: -4.1%.
`Cc1cc2c(c3oc(=O)c4ccccc4c13)CN(Cc1ccc(F)cc1)CO2` was tested, and the activation was inactive: -18%.
With `COCCCNC(=O)CCC(=O)N1Cc2ccccc2Oc2ncccc21` the activation was inactive: 2.88%.
For `Cc1cc(C)c2oc(-c3cccc(NC(=O)c4ccco4)c3)nc2c1`, the activation was inactive: 2.29%.
In the case of `CCC1CCCCN1CCCNC(=O)CN1C(=O)CSc2ccc(S(=O)(=O)N3CCC(C)CC3)cc21` (centres undefined), the activation was inactive: -28.7%.
In the case of `C#CCN[C@@H]1CCc2ccccc21`, the activation was inactive: -15.4%.
`O=C(Nc1cccc(Cl)c1)Nc1ccccc1OCc1cc(=O)n2ccccc2n1` was tested, and the activation was inactive: -16.8%.
`COc1ccccc1N1CCN(C(=O)c2sc3nc4n(c(=O)c3c2C)CCC4)CC1` was tested, and the activation was inactive: 0.387%.
For `CCCCN(CC)CCNC(=O)c1cn(CCOC)c(=O)c2c1c1ccccc1n2C`, the activation was inactive: -8.88%.
`CCC(=O)N1CCc2cc(S(=O)(=O)CCC(=O)Nc3ccc(Cl)c(C(F)(F)F)c3)ccc21` was tested, and the activation was active: 88.1%.
For `CCOc1ccc(C(=O)c2cn(Cc3ccccc3OC)c3cc4c(cc3c2=O)OCCO4)cc1`, the activation was inactive: 2.06%.
In the case of `Cc1ccc(NC(=O)Cn2c(=O)oc3ccccc32)cc1Cl`, the activation was inactive: 8.98%.
For `COc1ccccc1CN1COc2ccc3c(C)cc(=O)oc3c2C1`, the activation was inactive: -34.4%.
With `O=C(NC1CC(=O)N(c2cccc(F)c2)C1)c1ccc(S(=O)(=O)N2CCOCC2)cc1` (centres undefined) the activation was inactive: 6.74%.
`CCOC(=O)c1ccc(NC(=O)CSc2ccc(-c3sc(C)nc3C)nn2)cc1` was tested, and the activation was inactive: -12.5%.
For `CCOC(=O)c1ccc(NC(=O)c2cn(-c3ccccc3)nc2-c2ccc(Br)cc2)cc1`, the activation was inactive: 21.5%.
In the case of `COc1ccc(C(=O)c2oc3ccccc3c2NC(=O)c2ccc(F)cc2)cc1`, the activation was inactive: -3.99%.
With `O=C(c1cn(CCOc2ccccc2F)c2ccccc12)C1CCCCC1` the activation was inactive: -11.6%.
With `COc1ccc(Cn2ccc3nc(C)c(C(=O)N4CCN(c5ccccc5)CC4)cc3c2=O)cc1` the activation was inactive: -6.18%.
`CN/C(=C\[N+](=O)[O-])NCCSCc1ccc(CN(C)C)o1` was tested, and the activation was inactive: 11.9% and inactive: -2.51%.
For `COc1ccc(NC(=O)CSc2oc(-c3cccs3)nc2S(=O)(=O)c2ccc(Br)cc2)c(OC)c1`, the activation was inactive: 8.09%.
In the case of `CCc1nonc1NC(=O)c1oc2cc(C)c(Cl)cc2c1C`, the activation was inactive: -7.54%.
`Cc1cccc(Cn2cc(C(=O)c3ccccc3)c(=O)c3cc4c(cc32)OCO4)c1` was tested, and the activation was inactive: -3.07%.
For `Cc1ccc(Nc2sc(C(=O)c3ccccc3)c(N)c2C(=O)NC(C)C)cc1`, the activation was inactive: -7.09%.
For `Cc1nc2ccn(Cc3cccs3)c(=O)c2cc1C(=O)NCc1ccccc1`, the activation was inactive: -18.6%.
`CCOc1ccc(NC(=O)C2CCN(S(=O)(=O)c3cc(-c4noc(C)n4)ccc3C)CC2)cc1` was tested, and the activation was inactive: -7.2%.
With `CCOC(=O)c1cc(-c2ccccc2)n(CC(=O)Nc2ccc(OC)cc2OC)c1C` the activation was inactive: -15.5%.
